According to PMC4336329 (PLoS ONE, 2015):
Screen size: about 310,000 compounds; about 2,200 (0.71%) showed an effect of 50% or more. Effects have a minus sign here. This is one part of the list.

The compounds below were run against human ether-à-go-go-related gene (hERG) potassium channel (human, UniProt Q12809) (assay: primary screen, population patch clamp on CHO cells stably expressing hERG).
Chain of human ether-à-go-go-related gene (hERG) potassium channel (Q12809 whole entry, looked up): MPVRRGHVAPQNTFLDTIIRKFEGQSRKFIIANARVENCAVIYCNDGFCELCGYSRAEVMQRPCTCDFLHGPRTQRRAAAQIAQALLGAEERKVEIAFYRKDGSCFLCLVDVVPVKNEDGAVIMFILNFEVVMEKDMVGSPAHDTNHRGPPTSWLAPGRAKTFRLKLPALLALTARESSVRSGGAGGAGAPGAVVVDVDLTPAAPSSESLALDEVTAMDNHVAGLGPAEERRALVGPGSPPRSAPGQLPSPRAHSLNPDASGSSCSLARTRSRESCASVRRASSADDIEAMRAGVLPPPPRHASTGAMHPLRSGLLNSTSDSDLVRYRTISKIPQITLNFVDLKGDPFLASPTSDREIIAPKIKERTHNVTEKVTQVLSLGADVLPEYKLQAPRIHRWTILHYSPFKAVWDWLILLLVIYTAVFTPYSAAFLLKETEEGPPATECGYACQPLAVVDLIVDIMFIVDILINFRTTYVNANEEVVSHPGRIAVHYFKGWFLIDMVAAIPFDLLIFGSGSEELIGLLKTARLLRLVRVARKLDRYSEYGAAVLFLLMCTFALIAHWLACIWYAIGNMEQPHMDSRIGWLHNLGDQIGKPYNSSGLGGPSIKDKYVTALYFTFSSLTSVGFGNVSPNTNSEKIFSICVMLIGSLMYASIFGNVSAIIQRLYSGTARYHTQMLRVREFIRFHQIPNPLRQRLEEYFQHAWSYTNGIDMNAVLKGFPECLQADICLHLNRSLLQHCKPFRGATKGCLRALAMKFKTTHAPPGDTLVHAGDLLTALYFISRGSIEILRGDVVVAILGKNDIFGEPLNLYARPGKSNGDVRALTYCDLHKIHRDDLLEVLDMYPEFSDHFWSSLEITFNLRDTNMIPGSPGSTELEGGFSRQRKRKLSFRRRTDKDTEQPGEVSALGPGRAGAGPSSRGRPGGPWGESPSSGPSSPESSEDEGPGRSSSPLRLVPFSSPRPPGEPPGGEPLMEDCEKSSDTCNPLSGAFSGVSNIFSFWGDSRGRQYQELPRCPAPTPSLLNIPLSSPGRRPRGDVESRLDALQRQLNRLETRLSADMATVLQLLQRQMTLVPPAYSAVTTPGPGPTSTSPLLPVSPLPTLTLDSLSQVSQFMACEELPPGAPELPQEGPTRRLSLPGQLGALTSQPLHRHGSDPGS
With `COc1ccc(CNS(=O)(=O)c2ccc3c(c2)NC(=O)CS3)cc1` the “hERG current change (%, negative = inhibition) at 1uM” value was 2.4%. With `CCOc1ccccc1C(=O)n1nc(C)cc1C` the “hERG current change (%, negative = inhibition) at 1uM” value was 16.3%. In the case of `O=C(NCCC1=CCCCC1)C(=O)NCc1ccccc1`, the “hERG current change (%, negative = inhibition) at 1uM” value is reported as 11.1%. For `Cc1cc(C(=O)Nc2ccc(Cl)cc2)on1`, the “hERG current change (%, negative = inhibition) at 1uM” value was 28.2%. In the case of `CC(C)Oc1ccc(C(CC(=O)O)Cc2ccccc2)cc1` (stereo not drawn), the “hERG current change (%, negative = inhibition) at 1uM” value is reported as 7.22%. With `Cc1ccc(S(=O)(=O)N(CC(=O)N/N=C\c2cccs2)c2cccc3cccnc23)cc1` the “hERG current change (%, negative = inhibition) at 1uM” value was 4.24%. In the case of `CCCOc1ccccc1C1NC(=O)NC(C)=C1C(=O)OCc1ccccc1` (stereo not drawn), the “hERG current change (%, negative = inhibition) at 1uM” value is reported as 5.23%. In the case of `CCOc1c(Nc2ccc(C(C)C)cc2)c(=O)c1=O`, the “hERG current change (%, negative = inhibition) at 1uM” value is reported as 10.2%. In the case of `Cc1csc(NC(=O)c2cccc(S(=O)(=O)N3CCN(C)CC3)c2)n1`, the “hERG current change (%, negative = inhibition) at 1uM” value is reported as 16.6%. `Cc1cc(-n2nc(C)cc2C)nc(N)n1` was tested, and the “hERG current change (%, negative = inhibition) at 1uM” value was 2.81%. For `COc1ccc(NC(=O)CCS(=O)(=O)c2ccc3c(c2)oc(=O)n3C)cc1`, the “hERG current change (%, negative = inhibition) at 1uM” value was 21%. `O=C(NCc1ccncc1)c1ccc(NS(=O)(=O)c2ccc(F)cc2)cc1` was tested, and the “hERG current change (%, negative = inhibition) at 1uM” value was 6.46%. For `COC(=O)C(C)NC(=O)c1ccc(C(C)(C)C)cc1` (stereo not drawn), the “hERG current change (%, negative = inhibition) at 1uM” value was 7.44%. In the case of `Cc1cccc(NC(=O)CSc2nc3c(c(=O)[nH]2)CCCC3)c1C`, the “hERG current change (%, negative = inhibition) at 1uM” value is reported as 0.812%. For `CCOc1ccc(S(=O)(=O)N(CCO)CCO)cc1-c1nc2c(C(C)(C)C)nn(C)c2c(=O)[nH]1`, the “hERG current change (%, negative = inhibition) at 1uM” value was 15.3%. For `O=C1NCCNC(=O)c2ccccc2OCCOc2ccccc21`, the “hERG current change (%, negative = inhibition) at 1uM” value was 4.34%. `Cc1nn(CC(=O)Nc2ccccn2)c(C)c1Br` was tested, and the “hERG current change (%, negative = inhibition) at 1uM” value was 6.5%. With `CCN(C(=O)COC(=O)CSc1ccc(C)c(C)c1)C1CCS(=O)(=O)C1` (stereo not drawn) the “hERG current change (%, negative = inhibition) at 1uM” value was -1.21%. `CCOC(=O)C1CCN(Cc2c(F)cccc2Cl)CC1` was tested, and the “hERG current change (%, negative = inhibition) at 1uM” value was -5.72%. With `COc1ccc(NC(=O)CN(C)C(=O)c2cc(-c3ccncc3)nc3ccccc23)cc1` the “hERG current change (%, negative = inhibition) at 1uM” value was 6.56%. `O=C(c1cc(Cl)cc(Cl)c1)N1CCOCC1` was tested, and the “hERG current change (%, negative = inhibition) at 1uM” value was 14.6%. `CSc1ccccc1NC(=O)c1ccccn1` was tested, and the “hERG current change (%, negative = inhibition) at 1uM” value was 1.22%. In the case of `COc1cc(C(=O)N2CCN(S(=O)(=O)c3cccs3)CC2)cc(OC)c1C`, the “hERG current change (%, negative = inhibition) at 1uM” value is reported as 2.37%. In the case of `COc1cccc2cc(C(=O)C3=C(O)C(=O)N(CCN4CCOCC4)C3c3ccc(Cl)cc3)oc12` (stereo not drawn), the “hERG current change (%, negative = inhibition) at 1uM” value is reported as 14.5%. For `COc1ccc(N2CCN(C(=O)C(CCSC)N=C3NS(=O)(=O)c4ccccc43)CC2)cc1` (stereo not drawn), the “hERG current change (%, negative = inhibition) at 1uM” value was -4.88%. In the case of `CCCCNC(=O)CCCn1c(=O)[nH]c2ccc(Br)cc2c1=O`, the “hERG current change (%, negative = inhibition) at 1uM” value is reported as 8.93%. `Cc1cc2nnc(SCC(=O)N3CCCCC3)n2c(N)n1` was tested, and the “hERG current change (%, negative = inhibition) at 1uM” value was 10.6%. `Cc1sc(NC(=S)NC(=O)c2cccs2)nc1-c1ccc(CC(C)C)cc1` was tested, and the “hERG current change (%, negative = inhibition) at 1uM” value was 6.24%. In the case of `O=C(O)Cc1sc(Nc2cccc3ccccc23)nc1-c1ccccc1`, the “hERG current change (%, negative = inhibition) at 1uM” value is reported as 12.9%. With `Cc1ccc(C(=O)Nc2cccc(C(F)(F)F)c2)cc1NC(=O)c1ccno1` the “hERG current change (%, negative = inhibition) at 1uM” value was 0.3%. With `O=C1NC(=O)C(c2ccc(F)cc2)N1` (stereo not drawn) the “hERG current change (%, negative = inhibition) at 1uM” value was 20.1%. For `CC1(C(=O)O)CCC(C(=O)NNC(=O)c2ccccc2Cl)C1(C)C` (stereo not drawn), the “hERG current change (%, negative = inhibition) at 1uM” value was 7.26%. `Cn1c(CCNC(=O)c2ccco2)nc2ccccc21` was tested, and the “hERG current change (%, negative = inhibition) at 1uM” value was 0.814%. In the case of `Cc1cnc(C(=O)OCC(=O)c2ccc(Br)s2)cn1`, the “hERG current change (%, negative = inhibition) at 1uM” value is reported as 8.99%. For `COc1ccc(OCCOC(=O)c2nc3nccc(C)n3n2)cc1`, the “hERG current change (%, negative = inhibition) at 1uM” value was 3.47%. In the case of `C=CCC1(CC=C)CCCN1C(=O)c1cc(COc2ccc(-n3cncn3)cc2)on1`, the “hERG current change (%, negative = inhibition) at 1uM” value is reported as -5.5%. In the case of `O=c1c(F)cn(C2CCCO2)c(=O)n1Cc1ccccc1F` (stereo not drawn), the “hERG current change (%, negative = inhibition) at 1uM” value is reported as 9.46%. In the case of `Cc1ccc(S(=O)(=O)n2nc(OC(=O)c3c(-c4ccccc4Cl)noc3C)cc2N)cc1`, the “hERG current change (%, negative = inhibition) at 1uM” value is reported as 13%. For `COCCCNC(=S)N/N=C/c1ccc(OC)c(Br)c1`, the “hERG current change (%, negative = inhibition) at 1uM” value was 13.9%. For `COc1cccc(NC(=O)CN2C(=O)c3cccnc3Oc3ccc(Cl)cc32)c1`, the “hERG current change (%, negative = inhibition) at 1uM” value was 3.02%. In the case of `Nc1ccccc1C(=O)N/N=C1\C2CN3CCN(C2)CC1(c1ccccc1)C3`, the “hERG current change (%, negative = inhibition) at 1uM” value is reported as -1.63%. For `CC1(C)CC(=O)c2c(oc3ccc(NS(=O)(=O)c4cccc5cccnc45)cc23)C1`, the “hERG current change (%, negative = inhibition) at 1uM” value was 5.76%. In the case of `CCOc1ccc(NS(=O)(=O)c2cc(C(=O)N3CC(C)OC(C)C3)ccc2C)cc1` (stereo not drawn), the “hERG current change (%, negative = inhibition) at 1uM” value is reported as 9.18%. `COc1ccc(C)cc1NC(=O)C1C2C=CC(C2)C1C(=O)O` (stereo not drawn) was tested, and the “hERG current change (%, negative = inhibition) at 1uM” value was 6.28%. For `Cc1cccc(NC(=O)CSc2nccn2Cc2ccco2)c1C`, the “hERG current change (%, negative = inhibition) at 1uM” value was 10.4%.
